Measured values: publication PMC2867792
Results are given in words; binding and its absence hold for the method and conditions named. For some of these results: Binding seen in cells or lysates may run through a third protein. Some binding calls cover weakened binding; strength is not graded here. For some of these results: Tags and fused reporters may be left off the sequences shown. Values belong to the molecule of their own block, whether it stands above or below them.

Protein sequences, listed by entry. Tags and fused reporters are not part of them. Lines headed by an entry give the natural chain unless they say otherwise; changes in a name come on top. Chains listed by the source or under a name are the forms on record and can include a tag or linker. Residues count along the entry.
UniProt Q9BRX2: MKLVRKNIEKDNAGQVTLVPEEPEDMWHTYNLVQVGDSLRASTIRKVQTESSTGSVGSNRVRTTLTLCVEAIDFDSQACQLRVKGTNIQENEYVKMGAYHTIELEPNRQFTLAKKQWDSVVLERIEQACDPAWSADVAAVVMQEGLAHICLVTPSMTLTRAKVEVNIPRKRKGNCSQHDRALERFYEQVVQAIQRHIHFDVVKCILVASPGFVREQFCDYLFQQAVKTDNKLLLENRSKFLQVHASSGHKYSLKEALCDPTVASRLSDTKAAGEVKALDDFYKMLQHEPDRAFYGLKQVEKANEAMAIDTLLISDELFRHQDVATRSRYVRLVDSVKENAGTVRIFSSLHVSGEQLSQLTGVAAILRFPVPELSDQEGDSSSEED
GST-PELO fusion protein GST-1 (full-length human Pelo, 2-385 aa): residues 2-385 of Q9BRX2
GST-PELO fusion protein GST-3 (2-371 aa): residues 2-371 of Q9BRX2
GST-PELO fusion protein GST-4 (2-268 aa): residues 2-268 of Q9BRX2
GST-PELO fusion protein GST-2 (136-385 aa): residues 136-385 of Q9BRX2
UniProt O75821: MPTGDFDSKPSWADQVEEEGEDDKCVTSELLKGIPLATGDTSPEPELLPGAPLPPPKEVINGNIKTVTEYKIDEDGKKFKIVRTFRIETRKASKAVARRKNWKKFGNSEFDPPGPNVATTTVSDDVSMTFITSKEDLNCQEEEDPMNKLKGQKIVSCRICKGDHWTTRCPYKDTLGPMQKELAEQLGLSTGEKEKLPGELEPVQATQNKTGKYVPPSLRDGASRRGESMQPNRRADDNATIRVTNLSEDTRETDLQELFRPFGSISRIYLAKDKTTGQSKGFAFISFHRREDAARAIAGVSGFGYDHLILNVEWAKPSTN
Myc-HAX1 (12 kDa, cDNA fragment from the prey vector) (O00165, residues 176-279): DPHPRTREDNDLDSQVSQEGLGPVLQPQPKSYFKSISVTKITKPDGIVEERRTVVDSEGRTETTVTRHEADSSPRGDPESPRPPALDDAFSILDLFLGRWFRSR
HAX1-GFPN (HAX1 178-279 aa fused to the N-terminal half of EGFP) (O00165, residues 178-279): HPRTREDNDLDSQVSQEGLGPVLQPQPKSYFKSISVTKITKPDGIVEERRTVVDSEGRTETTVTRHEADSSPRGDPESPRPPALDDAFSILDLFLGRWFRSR

Legend:
[1] = biological target: PELO (full length, yeast two-hybrid bait, pGBK7-PELO) (human) (UniProt Q9BRX2); test: two-hybrid; pGBK7-PELO bait against a human prostate cDNA library in pACT2, yeast AH109; selection without histidine and adenine with 5 mM 3-amino-triazole, then beta-galactosidase
[2] = biological target: PELO-GFPC (full-length human Pelo, 1-385 aa, fused to the C-terminal half of EGFP) (human) (UniProt Q9BRX2); test: split reporter; BiFC with EGFP halves (1-157, 158-239) in transiently co-transfected HeLa cells, 24 h at 37°C, 2 h at 30°C, fixed
[3] = biological target: HA-tagged PELO (PELO-HA) (human) (UniProt Q9BRX2); test: co-IP; lysates of HeLa cells co-transfected with PELO-HA and a Myc-tagged construct; precipitation with anti-Myc (blot anti-HA) or with anti-HA or anti-PELO (blot anti-Myc); control IgG
[4] = biological target: GST-PELO fusion protein GST-1 (full-length human Pelo, 2-385 aa) (human) (UniProt Q9BRX2); test: pull-down; GST-PELO fusion proteins or GST alone (100 ug) on glutathione (GST-bind) resin, incubated with lysates of HeLa cells transfected with Myc-tagged constructs, 2 h at 4°C; blot with anti-Myc; only the target purified
[5] = biological target: GST-PELO fusion protein GST-2 (136-385 aa) (human) (UniProt Q9BRX2); test: as above
[6] = biological target: GST-PELO fusion protein GST-3 (2-371 aa) (human) (UniProt Q9BRX2); test: as above
[7] = biological target: GST-PELO fusion protein GST-4 (2-268 aa) (human) (UniProt Q9BRX2); test: as above

Molecule: EIF3G (amino acid residues 1-320), two-hybrid prey clone (from UniProt O75821 1-320) (domain or fragment)
binding [1]: binds

Molecule: EIF3G-GFPN (EIF3G 1-320 aa fused to the N-terminal half of EGFP) (from UniProt O75821 1-320) (domain or fragment)
binding [2]: binds

Molecule: Myc-HAX1 (12 kDa, cDNA fragment from the prey vector) (from UniProt O00165 176-279) (domain or fragment)
binding [3]: binds | binding [4]: binds | binding [5]: binds | binding [6]: no binding | binding [7]: no binding

B1: Myc-SRPX (24 kDa, cDNA fragment from the prey vector) (domain or fragment, UniProt P78539 265-464)
chain: LNAPENGYMKCSSDGDNYGATCEFSCIGGYELQGSPARVCQSNLAWSGTEPTCAAMNVNVGVRTAAALLDQFYEKRRLLIVSTPTARNLLYRLQLGMLQQAQCGLDLRHITVVELVGVFPTLIGRIGAKIMPPALALQLRLLLRIPLYSFSMVLVDKHGMDKERYVSLVMPVALFNLIDTFPLRKEEMVLQAEMSQTCNT
binding [3]: binds | binding [4]: binds | binding [5]: binds | binding [6]: binds | binding [7]: no binding

B2: SRPX (amino acid residues 265-464), two-hybrid prey clone (domain or fragment, UniProt P78539 265-464)
chain: B1 chain
binding [1]: binds

B4: MOS-GFPN (sequence of the MOS gene fused to the N-terminal half of EGFP) (protein, UniProt P00540 1-346)
chain: MPSPLALRPYLRSEFSPSVDARPCSSPSELPAKLLLGATLPRAPRLPRRLAWCSIDWEQVCLLQRLGAGGFGSVYKATYRGVPVAIKQVNKCTKNRLASRRSFWAELNVARLRHDNIVRVVAASTRTPAGSNSLGTIIMEFGGNVTLHQVIYGAAGHPEGDAGEPHCRTGGQLSLGKCLKYSLDVVNGLLFLHSQSIVHLDLKPANILISEQDVCKISDFGCSEKLEDLLCFQTPSYPLGGTYTHRAPELLKGEGVTPKADIYSFAITLWQMTTKQAPYSGERQHILYAVVAYDLRPSLSAAVFEDSLPGQRLGDVIQRCWRPSAAQRPSARLLLVDLTSLKAELG
binding [2]: no binding

Next, values leading:

binding [1]: binds
Molecule: HAX1 (amino acid residues 176-279), two-hybrid prey clone (from UniProt O00165 176-279) (domain or fragment)

binding [2]: binds
Molecule: HAX1-GFPN (HAX1 178-279 aa fused to the N-terminal half of EGFP) (from UniProt O00165 178-279) (domain or fragment)

binding [3]: binds | binding [4]: binds | binding [5]: binds | binding [6]: binds | binding [7]: no binding
Molecule: Myc-EIF3G (38 kDa, cDNA fragment from the prey vector) (from UniProt O75821 1-320) (domain or fragment)

binding [2]: binds
B3: SRPX-GFPN (SRPX 265-464 aa fused to the N-terminal half of EGFP) (domain or fragment, UniProt P78539 265-464)
chain: B1 chain
